Screen size: about 94,000 compounds; about 6,200 (6.6%) were called active. Inconclusive means that the source gave no clear call. Such entries were picked first, then a sample of the others. The call rests on the fitted dose curve; in most records, active means well fitted inhibition curve with a large enough effect; inconclusive means small, poorly fitted or top-dose-only effect; inactive means flat fitted curve, though single readings scatter. Where the call is inconclusive, the potency comes from a doubtful curve fit.
Assay: Cytotoxic Profiling in HEK 293 Cell Line of Diverse Libraries Using Quantitative High-Throughput Screening; further: nearly all actives have a fitted effect of over 60% in size
Conditions: HEK 293 viability, ATP luminescence (CellTiter-Glo), 48-72 h; activity change, negative = cytotoxicity: at 115 µM (top of the series) unless noted; series mostly up to 115 µM
Procedure, shortened: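 250 HEK 293 cells/well; compound by pintool; incubated 48 or 72 hr at 37 degree Celsius; CellTiter-Glo added, 10 min RT, luminescence imaged.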
On the % scale 0 is the no-effect control and ±100 the full control effect; potency means the concentration at half of the fitted maximal effect; tags describe the fitted curve by direction and shape.

Compound | Potency | outcome | activity change, negative = cytotoxicity
O=C(C[C@@H]1CCNC[C@@H]1Cc1cc(-c2ccc(F)cc2)on1)NCc1ccccc1 | active: 100 µM | – | –
CC(C)CNC(=O)C1CCN(C(=O)c2ccc(-c3cccs3)cc2)CC1 | inconclusive: 89.1 µM [inhibitor, single point] | – | –
O=C(Nc1cccc(F)c1)c1ccc(Cn2ccn3nc4c(c3c2=O)CCCC4)cc1 | inconclusive: 25.1 µM [inhibitor, full curve, poor fit] | – | –
O=C(c1ccncc1)N1CCC(Cc2nc(-c3ccccc3)n[nH]2)CC1 | – | inactive | –
C=CCNC(=O)N[C@H]1CO[C@H]2[C@@H]1OC[C@H]2OC(=O)Nc1cccc(C(C)=O)c1 | – | – | inactive: -23.8% [at 172 µM]
CCOc1cccc(-c2noc(-c3ncn4c3COC(c3ccc(OC)cc3)C4)n2)c1 (stereo unspecified) | active: 22.4 µM | – | –
COc1ccc(C(CC(=O)N2CCCC2)c2ccccc2)cc1 (stereo unspecified) | inconclusive: 50.1 µM [inhibitor, partial curve, poor fit] | – | –
O=C1CC2(CCN(C(=O)C3CCCN(C(=O)c4cccc(Cl)c4)C3)CC2)Oc2ccccc2N1 (stereo unspecified) | inconclusive: 50.1 µM [inhibitor, partial curve, poor fit] | – | –
COc1ccc(Cc2nc3nccc(-c4cc(OC)c(OC)c(OC)c4)n3n2)cc1 | inconclusive: 50.1 µM [inhibitor, partial curve, poor fit] | – | –
Cc1nc(CC2CCN(C(=O)C3CCC3)CC2)n[nH]1 | – | – | inactive: 2.45%
COc1ccc(C2(C(=O)N(C)Cc3cccc(OC(F)(F)F)c3)CCOCC2)cc1 | inconclusive: 50.1 µM [inhibitor, partial curve, poor fit] | – | –
CNC(=O)CC1CCOC2(CCN(C(=O)Cn3nc(C(F)(F)F)cc3C)CC2)C1 (stereo unspecified) | – | – | inactive: -7.93%
O=C(NCc1ccccn1)c1ccc(CN2C(=O)NC3(CCS(=O)(=O)CC3)C2=O)cc1 | inconclusive: 89.1 µM [inhibitor, single point] | – | –
Cc1cnc(C(=O)NC2C[C@H]3CC[C@@H](C2)N3C(=O)c2cnccc2C)cn1 (stereo partly specified) | – | inactive | –
O=C(c1cccc(Cl)c1)N1CCC(C(=O)N2CCC(c3nc4ccncc4[nH]3)CC2)CC1 | – | – | inactive: 2.87%
COc1ccc(NC(=O)O[C@@H]2C=C[C@H](c3c(C)nn(-c4ccc(C)c(Cl)c4)c3C)C2)cc1 | inconclusive: 79.4 µM [inhibitor, partial curve, poor fit] | – | –
OC1(c2cccc(C(F)(F)F)c2)CCN(Cc2nc(-c3cccs3)no2)CC1 | inconclusive: 44.7 µM [inhibitor, partial curve, poor fit] | – | –
Cc1cc(N2CCC(NC(=O)c3ccc4[nH]ccc4c3)C2=O)ccc1F (stereo unspecified) | – | – | inactive: -16.5%
Cc1cccc(C)c1OCc1cc(C(=O)N2CCCC(C(=O)c3nccn3C)C2)no1 (stereo unspecified) | inconclusive: 31.6 µM [inhibitor, full curve] | – | –
O=C(NCc1ccccn1)C1CCN(Cc2ccccc2-c2cccnc2)CC1 | – | – | inactive: -19.3%
O=C(COc1ccc(Cl)cc1)Nc1cccc(-c2nnc3n2CCCC3)c1 | inconclusive: 56.2 µM [inhibitor, partial curve, poor fit] | – | –

Compound | Potency | outcome | activity change, negative = cytotoxicity
CCCC(O)CN1CCC(=O)N(C2CCCC2)Cc2ccccc21 (stereo unspecified) | inconclusive: 79.4 µM [inhibitor, partial curve, poor fit] | – | –
Cc1cc(-c2cc3c(cn2)CN(Cc2ccccc2O)CCN3)ccn1 | inconclusive: 70.8 µM [inhibitor, partial curve, poor fit] | – | –
O=C1NCCCCCCN(S(=O)(=O)c2ccccc2)[C@H]2C[C@H](c3nc(-c4cccnc4)no3)C[C@@H]12 | – | – | inactive: -4.2%
S=C(NC1CCCCC1)N[C@H]1CO[C@H]2[C@@H]1OC[C@@H]2n1nnnc1-c1ccc2c(c1)OCO2 | inconclusive: 50.1 µM [inhibitor, partial curve, poor fit] | – | –
CC(=O)Nc1ccc(CN2CCCC(c3nc4ccc(F)cc4c(=O)[nH]3)C2)cc1 (stereo unspecified) | inconclusive: 44.7 µM [inhibitor, partial curve, poor fit] | – | –
COc1ccc(-c2cc(C(=O)NCC#N)c3cnn(C)c3n2)cc1 | inconclusive: 79.4 µM [inhibitor, partial curve] | – | –
Cc1cc(C)c(CNC(=O)c2cc(-c3ccnn3C)cc3c2OCCN3C)c(=O)[nH]1 | – | – | inactive: -29.9% [at 172 µM]
O=C(Cc1ccc2c(c1)OCO2)N1CCc2onc(-c3cccc(F)c3)c2C1 | inconclusive: 79.4 µM [inhibitor, single point] | – | –
O=C(NCCC1=CCCCC1)c1cc2n(n1)CC(c1ccc3c(c1)OCO3)OC2 (stereo unspecified) | active: 70.8 µM | – | –
O=C1NCCCCCCN(C(=O)C2CC2)[C@H]2CCCC[C@@H]12 | inconclusive: 79.4 µM [inhibitor, partial curve, poor fit] | – | –
COC(=O)c1cccc(C(=O)NC2CCCN(CCCc3ccccc3)C2)c1 (stereo unspecified) | inconclusive: 50.1 µM [inhibitor, partial curve, poor fit] | – | –
Cc1cc(C)c(C(=O)N2CCOC(Cc3ccc(F)cc3)C2)o1 (stereo unspecified) | inconclusive: 39.8 µM [inhibitor, partial curve, poor fit] | – | –
COc1ccc(CN2Cc3[nH]nc(-c4ccc(C(=O)N5CCOCC5)cc4)c3CC2=O)cc1 | active: 79.4 µM | – | –
Cc1cc(CN(C)C(=O)CC(c2ccccc2)c2ccc3c(c2)OCO3)n[nH]1 (stereo unspecified) | inconclusive: 15.8 µM [inhibitor, full curve, poor fit] | – | –
Cc1ccc(C)c(C(=O)N2CCN(C(=O)c3nnn4c3COC(c3ccc(Cl)cc3)C4)CC2)c1 (stereo unspecified) | active: 44.7 µM | – | –
CC1=C[C@@H](CNC(C)C)[C@H](C(C)C)C[C@H]1Cc1nnc(-c2ccc(C)cc2)o1 | active: 70.8 µM | – | –
COc1ccc(-c2nc(C3CC3)nc3c2CCN(Cc2cc(C)on2)CC3)cc1 | – | – | inactive: -48.5%
COc1ccc(CN2CCNc3cnc(Nc4ccccc4)cc3C2)cc1 | active: 89.1 µM | – | –
NC(=O)CN1C(=O)CO[C@H]2CN(CCCc3ccccc3)C[C@H]21 | – | – | inactive: -11% [at 172 µM]
Cc1ccc(Nc2ccnc(N3CCC(N[S+](=O)([O-])c4ccc(C)cc4)CC3)n2)cc1 | inconclusive: 31.6 µM [inhibitor, full curve, poor fit] | – | –

Reference: PubChem BioAssay AID1345083 (National Center for Advancing Translational Sciences (NCATS), 2018)
